Measured values reported in paper PMC4336329 (PLoS ONE, 2015).
The whole screen tested about 310,000 compounds, of which about 14,000 (4.5%) showed an effect of 50% or more. The effect is printed as a negative number. This is one part of the list.
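Also: peak tail current of the secondary pulse compared with the same well before compound.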

Each molecule was assayed against human ether-à-go-go-related gene (hERG) potassium channel (human, UniProt Q12809) (assay: primary screen, population patch clamp on CHO cells stably expressing hERG).
human ether-à-go-go-related gene (hERG) potassium channel, sequence (Q12809 whole entry, looked up): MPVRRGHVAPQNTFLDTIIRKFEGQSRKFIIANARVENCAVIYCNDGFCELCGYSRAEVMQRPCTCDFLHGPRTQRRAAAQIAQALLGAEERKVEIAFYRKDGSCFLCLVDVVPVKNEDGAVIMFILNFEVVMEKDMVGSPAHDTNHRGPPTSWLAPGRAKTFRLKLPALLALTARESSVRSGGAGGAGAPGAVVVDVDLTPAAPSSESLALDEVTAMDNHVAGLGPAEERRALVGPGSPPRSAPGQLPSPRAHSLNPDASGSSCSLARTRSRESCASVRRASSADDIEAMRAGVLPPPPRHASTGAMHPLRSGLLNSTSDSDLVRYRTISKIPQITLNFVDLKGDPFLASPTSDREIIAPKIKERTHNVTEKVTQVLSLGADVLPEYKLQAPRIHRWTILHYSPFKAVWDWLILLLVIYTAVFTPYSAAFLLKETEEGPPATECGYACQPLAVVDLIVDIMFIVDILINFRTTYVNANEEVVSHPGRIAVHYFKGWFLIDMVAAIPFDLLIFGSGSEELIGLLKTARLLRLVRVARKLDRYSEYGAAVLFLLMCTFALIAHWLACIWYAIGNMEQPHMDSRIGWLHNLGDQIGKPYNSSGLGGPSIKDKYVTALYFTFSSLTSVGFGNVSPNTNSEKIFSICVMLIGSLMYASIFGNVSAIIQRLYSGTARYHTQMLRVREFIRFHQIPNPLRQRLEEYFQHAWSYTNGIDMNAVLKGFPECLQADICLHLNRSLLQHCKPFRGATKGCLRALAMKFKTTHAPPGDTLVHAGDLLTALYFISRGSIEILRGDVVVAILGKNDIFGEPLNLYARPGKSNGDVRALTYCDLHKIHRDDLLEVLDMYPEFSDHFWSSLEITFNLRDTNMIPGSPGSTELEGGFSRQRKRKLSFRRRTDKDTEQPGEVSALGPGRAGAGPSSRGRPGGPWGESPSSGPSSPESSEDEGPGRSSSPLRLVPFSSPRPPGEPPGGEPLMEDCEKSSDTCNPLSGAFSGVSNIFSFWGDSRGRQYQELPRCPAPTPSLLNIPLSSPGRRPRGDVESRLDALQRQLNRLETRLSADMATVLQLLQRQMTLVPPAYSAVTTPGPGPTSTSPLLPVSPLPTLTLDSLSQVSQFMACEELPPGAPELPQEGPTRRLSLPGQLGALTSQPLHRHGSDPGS
In the case of `O=C(Nc1cccc(F)c1)C1CCN(S(=O)(=O)c2cnc[nH]2)CC1`, the “hERG current change (%, negative = inhibition) at 10uM” value was 4.4%. In the case of `Cc1cc(C)cc(NC(=O)COC(=O)CCn2c(C)csc2=O)c1`, the “hERG current change (%, negative = inhibition) at 10uM” value was -16.2%. `Cc1nc2cc(NCc3ccc(Cl)cc3)ccc2n1C` was tested, and the “hERG current change (%, negative = inhibition) at 10uM” value was -70.6%. For `C=CCC(=O)N1CCCC(C(=O)c2ccc(Cl)cc2)C1` (stereo not shown), the “hERG current change (%, negative = inhibition) at 10uM” value was 7.88%. In the case of `CC(=O)Nc1ccc(Cc2ccncc2)cc1`, the “hERG current change (%, negative = inhibition) at 10uM” value was 12.1%. With `CCCOc1ccc(N2C(=O)CC(NCc3cccnc3)C2=O)cc1` (stereo not shown) the “hERG current change (%, negative = inhibition) at 10uM” value was -11%. `CCCC(=O)Nc1c(-c2cccc(C)c2)c(=O)c2ccccc2n1C` was tested, and the “hERG current change (%, negative = inhibition) at 10uM” value was 14%. In the case of `CC1CCN(C(=O)c2ccc(SCc3ccccc3F)c([N+](=O)[O-])c2)CC1`, the “hERG current change (%, negative = inhibition) at 10uM” value was 10.6%. `CCCN1C2=C(C(=O)CC(C)(C)C2)C(c2ccc(F)cc2)C2=C1c1ccccc1C2=O` (stereo not shown) was tested, and the “hERG current change (%, negative = inhibition) at 10uM” value was -1.38%. For `O=c1ccc(-c2ccc(S(=O)(=O)NCc3cccc(Br)c3)s2)n[nH]1`, the “hERG current change (%, negative = inhibition) at 10uM” value was -24.8%. For `Cc1noc(C)c1C(=O)OCC(=O)c1ccc[nH]1`, the “hERG current change (%, negative = inhibition) at 10uM” value was -7.07%. In the case of `CCc1nc2oc3ccccc3c(=O)c2c(=O)n1CCOC`, the “hERG current change (%, negative = inhibition) at 10uM” value was -19.2%. `O=C(COC(=O)C1(c2ccccc2)CC1)N1CCN(c2ccc(F)cc2)CC1` was tested, and the “hERG current change (%, negative = inhibition) at 10uM” value was -44.3%. In the case of `Cc1ccc(NC(=O)CN(C)CC(=O)Nc2cccc(F)c2)cc1[N+](=O)[O-]`, the “hERG current change (%, negative = inhibition) at 10uM” value was -34.3%. In the case of `Cc1ccc(NC(=O)CSc2nc(=O)n(CCCN3CCOCC3)c3c2CCCC3)c(C)c1`, the “hERG current change (%, negative = inhibition) at 10uM” value was -36.7%. In the case of `Cc1cc(NC(=O)Nc2ccc(Cl)c(Cl)c2)n(-c2ccccc2)n1`, the “hERG current change (%, negative = inhibition) at 10uM” value was 13.9%. In the case of `COc1cccc(NC(=O)Cn2c(CCC(=O)O)ccc2-c2ccc(C)cc2)c1`, the “hERG current change (%, negative = inhibition) at 10uM” value was 14.7%. With `COc1ccc(C(=O)N2CCC(n3c(C)nc4cc(F)ccc43)CC2)cc1OC` the “hERG current change (%, negative = inhibition) at 10uM” value was -69%. For `C=CCOc1ccccc1CN1CCCN(C)CC1`, the “hERG current change (%, negative = inhibition) at 10uM” value was 6.51%. With `COc1ccc(/C=C2\SC(=O)N(CCC(=O)Nc3ccc(S(=O)(=O)Nc4nccs4)cc3)C2=O)cc1` the “hERG current change (%, negative = inhibition) at 10uM” value was -0.0124%. For `O=C(COC(=O)CCc1nc2ccccc2s1)Nc1ncc(Cl)cc1Cl`, the “hERG current change (%, negative = inhibition) at 10uM” value was 6.7%. For `CSc1nnc(C)c(=O)n1COC(=O)COc1ccc2ccccc2c1`, the “hERG current change (%, negative = inhibition) at 10uM” value was -7.33%. `CCSc1ccccc1C(=O)NCc1ccc2c(c1)OCO2` was tested, and the “hERG current change (%, negative = inhibition) at 10uM” value was -24.8%. `CC(C)CC(O)C1CCN(C(=O)CCc2nnc(-c3ccc4c(c3)OCO4)o2)CC1` (stereo not shown) was tested, and the “hERG current change (%, negative = inhibition) at 10uM” value was 6.87%. `Cc1cc(C)cc(C(=O)Oc2coc(CSc3nnc(NC(=O)C4CC4)s3)cc2=O)c1` was tested, and the “hERG current change (%, negative = inhibition) at 10uM” value was 1.6%.
